The other results are listed elsewhere or left out. Sequences were assembled here from the parent chain. Values near 0.05 are background.
B1: TEV protease; numbered along this chain (parent)
chain: MGESLFKGPRDYNPISSSICHLTNESDGHTTSLYGIGFGPFIITNKHLFRRNNGTLVVQSLHGVFKVKDTTTLQQHLVDGRDMIIIRMPKDFPPFPQKLKFREPQREERICLVTTNFQTKSMSSMVSDTSCTFPSGDGIFWKHWIQTKDGQCGSPLVSTRDGFIVGIHSASNFTNTNNYFTSVPKNFMELLTNQEAQQWVSGWRLNADSVLWGGHKVFMVKPEEPFQPVKEATQL

Variants of: B1
Test: raw area under fraction-flipped curve 0-4 h after induction (AUC4h, not background-subtracted), DNA-recorder readout of cleavage of the substrate (dimensionless); higher = more cleavage of the substrate by the protease variant
Conditions: temperature: 34 °C; time window: 0-4 h after rhamnose induction
Experimental: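 In vivo DNA recorder in E. coli TOP10(DE3) ΔrhaA at 34 °C. Each TEVp single-site mutant (parent TEVp 0) is paired with a single-site variant of the 7-mer TEVs (canonical ENLYFQ|S). The substrate sits between flexible linkers in a Bxb1-sfGFP-TEVs-SsrA fusion, so cleavage stabilises Bxb1 and speeds flipping of a recombination array, read by NGS. The value is the raw area under the fraction-flipped curve over 0-4 h after rhamnose induction (AUC4h), with ≥20 reads per time point. It is not background-subtracted; inactive controls average about 0.047.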
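Note: Bxb1 expression induced with 0.2% (w/v) L-rhamnose at OD600 near 0.5, cultures sampled hourly, flipped fraction per protease–substrate barcode pair counted by paired-end Illumina sequencing.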

Variant	area with substrate CNLYFQS	area with substrate FNLYFQS	area with substrate GNLYFQS	area with substrate HNLYFQS	area with substrate INLYFQS	area with substrate KNLYFQS	area with substrate LNLYFQS	area with substrate MNLYFQS	area with substrate NNLYFQS	area with substrate PNLYFQS	area with substrate QNLYFQS	area with substrate SNLYFQS	area with substrate VNLYFQS	area with substrate WNLYFQS	area with substrate YNLYFQS	area with substrate TNLYFQS	area with substrate RNLYFQS
MGESLFKGPRDYNPISSSICHLTNESDGHTTSLYGIGFGPFIITNKHLFRRNNGTLVVQSLHGVFKVKDTTTLQQHLVDGRDMIIIRMPKDFPPFPQKLKFREPQREERICLVTTNFQTKSMSSMVSDTSCTFPSGDGIFWKHWIQTKDGQCGSPLVSTRDGFIVGIHSASNFTNTNNYFTSVPKNFMELLPNQEAQQWVSGWRLNADSVLWGGHKVFMVKPEEPFQPVKEATQL [T192P]	0.0559	0.061	0.0652	0.0695	0.0442	0.0599	0.0664	0.0577	0.0431	0.0539	0.0532	0.072	0.0546	0.0556	0.0582		
MGESLFKGPRDYNPISSSICHLTNESDGHTTSLYGIGFGPFIITNKHLFRRNNGTLVVQSLHGVFKVKDTTTLQQHLVDGRDMIIIRMPKDFPPFPQKLKFREPQREERICLVTTNFQTKSMSSMVSDTSCTFPSGDGIFWKHWIQTKDGQCGSPLVSTRDGFIVGIHSASNFTNTNNYFTSVPKNFMELLTPQEAQQWVSGWRLNADSVLWGGHKVFMVKPEEPFQPVKEATQL [N193P]	0.0647		0.0621			0.0468		0.0385	0.0693	0.0649		0.0675		0.0539	0.0618	0.0611	
MGESLFKGPRDYNPISSSICHLTNESDGHTTSLYGIGFGPFIITNKHLFRRNNGTLVVQSLHGVFKVKDTTTLQQHLVDGRDMIIIRMPKDFPPFPQKLKFREPQREERICLVTTNFQTKSMSSMVSDTSCTFPSGDGIFWKHWIQTKDGQCGSPLVSTRDGFIVGIHSASNFTNTNNYFTSVPKNFMELLTNSEAQQWVSGWRLNADSVLWGGHKVFMVKPEEPFQPVKEATQL [Q194S]	0.0898	0.0633		0.0644	0.062	0.075	0.0607		0.0793	0.0846	0.0758	0.0661		0.0549	0.0618	0.0722	0.0671
MGESLFKGPRDYNPISSSICHLTNESDGHTTSLYGIGFGPFIITNKHLFRRNNGTLVVQSLHGVFKVKDTTTLQQHLVDGRDMIIIRMPKDFPPFPQKLKFREPQREERICLVTTNFQTKSMSSMVSDTSCTFPSGDGIFWKHWIQTKDGQCGSPLVSTRDGFIVGIHSASNFTNTNNYFTSVPKNFMELLTNQCAQQWVSGWRLNADSVLWGGHKVFMVKPEEPFQPVKEATQL [E195C]	0.048	0.0667		0.0722	0.0632		0.0661	0.0665	0.055			0.0601	0.0625	0.0553	0.055	0.0526	0.058
MGESLFKGPRDYNPISSSICHLTNESDGHTTSLYGIGFGPFIITNKHLFRRNNGTLVVQSLHGVFKVKDTTTLQQHLVDGRDMIIIRMPKDFPPFPQKLKFREPQREERICLVTTNFQTKSMSSMVSDTSCTFPSGDGIFWKHWIQTKDGQCGSPLVSTRDGFIVGIHSASNFTNTNNYFTSVPKNFMELLTNQDAQQWVSGWRLNADSVLWGGHKVFMVKPEEPFQPVKEATQL [E195D]	0.0639	0.0477		0.0651		0.0603	0.0725			0.0459	0.07	0.0622		0.0665		0.0631	
MGESLFKGPRDYNPISSSICHLTNESDGHTTSLYGIGFGPFIITNKHLFRRNNGTLVVQSLHGVFKVKDTTTLQQHLVDGRDMIIIRMPKDFPPFPQKLKFREPQREERICLVTTNFQTKSMSSMVSDTSCTFPSGDGIFWKHWIQTKDGQCGSPLVSTRDGFIVGIHSASNFTNTNNYFTSVPKNFMELLTNQENQQWVSGWRLNADSVLWGGHKVFMVKPEEPFQPVKEATQL [A196N]	0.0919	0.0617	0.0721	0.0757	0.0598	0.056				0.076			0.101	0.0474	0.0613	0.0694	0.0665
MGESLFKGPRDYNPISSSICHLTNESDGHTTSLYGIGFGPFIITNKHLFRRNNGTLVVQSLHGVFKVKDTTTLQQHLVDGRDMIIIRMPKDFPPFPQKLKFREPQREERICLVTTNFQTKSMSSMVSDTSCTFPSGDGIFWKHWIQTKDGQCGSPLVSTRDGFIVGIHSASNFTNTNNYFTSVPKNFMELLTNQEACQWVSGWRLNADSVLWGGHKVFMVKPEEPFQPVKEATQL [Q197C]	0.0709	0.0525			0.0357		0.0697	0.0686				0.0603		0.0667		0.0692	0.0681
MGESLFKGPRDYNPISSSICHLTNESDGHTTSLYGIGFGPFIITNKHLFRRNNGTLVVQSLHGVFKVKDTTTLQQHLVDGRDMIIIRMPKDFPPFPQKLKFREPQREERICLVTTNFQTKSMSSMVSDTSCTFPSGDGIFWKHWIQTKDGQCGSPLVSTRDGFIVGIHSASNFTNTNNYFTSVPKNFMELLTNQEAQVWVSGWRLNADSVLWGGHKVFMVKPEEPFQPVKEATQL [Q198V]	0.0582					0.076	0.0557	0.0736	0.0763	0.0788		0.054		0.0579	0.0635	0.0557	0.0718
